Data as given in the BET-seq Pho4 binding data (Le et al. 2018).
The list shows a part of the results. The energies were worked out here from pooled read counts, against the library average; single values are noisy.

Molecular target: T1, Pho4 (S. cerevisiae) (UniProt P07270)
T1 sequence: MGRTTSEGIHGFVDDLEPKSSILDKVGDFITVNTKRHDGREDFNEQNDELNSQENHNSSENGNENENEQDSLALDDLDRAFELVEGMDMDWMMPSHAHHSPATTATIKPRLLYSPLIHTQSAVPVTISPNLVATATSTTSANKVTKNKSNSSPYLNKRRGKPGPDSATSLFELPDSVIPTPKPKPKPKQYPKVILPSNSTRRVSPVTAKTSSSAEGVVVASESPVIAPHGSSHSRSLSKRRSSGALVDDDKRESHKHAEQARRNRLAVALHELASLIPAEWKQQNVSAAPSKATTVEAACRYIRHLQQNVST
Experiment: relative binding free energy (BET-seq); higher = weaker binding
Conditions: reference: library average

Sequence	relative binding free energy
GGCTTCACGTGGTCGG	1.26 kJ/mol
TCGTGCACGTGAAAGT	0.837 kJ/mol
CTGATCACGTGGTAGT	0.251 kJ/mol
TCGGTCACGTGATTTA	0.962 kJ/mol
TTCATCACGTGCGGGT	0.795 kJ/mol
CGTGACACGTGGGTAA	-0.335 kJ/mol
CGTATCACGTGTGGGA	1.09 kJ/mol
GGAAGCACGTGGCAGG	-0.837 kJ/mol
GGGATCACGTGGTTGA	0.46 kJ/mol
TAAGACACGTGGGTGT	-0.837 kJ/mol
CAGTGCACGTGGTTTT	-0.209 kJ/mol
TCGTGCACGTGCATGT	-0.126 kJ/mol
AGCTTCACGTGTTAGT	0.586 kJ/mol
GTTTCCACGTGGTAGT	-0.167 kJ/mol
TGGATCACGTGAAAGT	1.3 kJ/mol
GGTATCACGTGTGGTA	1.26 kJ/mol
GGTTACACGTGGGCTG	-0.502 kJ/mol
TGGTTCACGTGATTGC	1.51 kJ/mol
TTGTGCACGTGACTGC	0.669 kJ/mol
ACTTGCACGTGAGTAT	1.17 kJ/mol
ATAGTCACGTGTGGTC	0.46 kJ/mol
GGGGGCACGTGGCAAA	-0.795 kJ/mol
GAGTGCACGTGCGTTG	0.335 kJ/mol

Sequence	relative binding free energy
TCTTTCACGTGAGGAA	1.76 kJ/mol
CATTGCACGTGGTATA	-0.167 kJ/mol
TTCTACACGTGAAGTG	0.795 kJ/mol
TATGTCACGTGGGTTA	0.0837 kJ/mol
TCTGGCACGTGGTGTC	-0.293 kJ/mol
CGGAACACGTGGTCGG	-0.377 kJ/mol
GGGCGCACGTGCGGTC	-0.0837 kJ/mol
GACATCACGTGATGGG	0.795 kJ/mol
TGACTCACGTGGTATG	1.09 kJ/mol
ATGATCACGTGGTTGT	0.711 kJ/mol
GTGGCCACGTGTAAGG	0.753 kJ/mol
TGTGGCACGTGTCGAA	-1.05 kJ/mol
GATGTCACGTGGGTCT	0.335 kJ/mol
AGGAACACGTGACGGT	1.46 kJ/mol
GTATGCACGTGAAGTG	0.962 kJ/mol
TTAGGCACGTGGTGGA	-0.251 kJ/mol
GGTTGCACGTGCCGTG	0.0837 kJ/mol
TAGTACACGTGTAAAG	1.13 kJ/mol
GAGGCCACGTGTTTTG	0.669 kJ/mol
CTTGTCACGTGTCTAT	0.502 kJ/mol
GGGTCCACGTGATTGG	1 kJ/mol
GGGAACACGTGATATG	1 kJ/mol
GGTGACACGTGCGTTA	-0.418 kJ/mol

Sequence	relative binding free energy
CTTGTCACGTGGTACT	0.251 kJ/mol
TTCAACACGTGGTATG	-0.126 kJ/mol
ATATTCACGTGTAGGT	0.669 kJ/mol
TGTCTCACGTGCGGTG	-0.167 kJ/mol
GTGTGCACGTGGATAT	-0.502 kJ/mol
GGGAGCACGTGTCATG	-0.46 kJ/mol
AAAAACACGTGGGGTG	-0.126 kJ/mol
AATTTCACGTGCATGA	1.38 kJ/mol
AATTACACGTGTGTTC	0.46 kJ/mol
GCGTGCACGTGTATAT	0.209 kJ/mol
ATGGTCACGTGTTAAT	0.167 kJ/mol
GGTTTCACGTGTTACG	0.711 kJ/mol
TACCGCACGTGTTGGG	-0.209 kJ/mol
AAGGTCACGTGGAAAG	0.879 kJ/mol
CGTTGCACGTGTTAGT	-0.377 kJ/mol
TGGTGCACGTGAAGAG	0.628 kJ/mol
TTCGGCACGTGAGTTG	0.418 kJ/mol
TTATACACGTGTTGCA	-0.335 kJ/mol
TATATCACGTGGTTTG	0.46 kJ/mol
CGTGGCACGTGCGTTT	-1 kJ/mol
GATTGCACGTGGTCTT	-0.418 kJ/mol
AGGCACACGTGAGGTT	1.3 kJ/mol
ATTGACACGTGGGCCT	-0.377 kJ/mol

Sequence	relative binding free energy
AGTACCACGTGGTTGG	-0.753 kJ/mol
GTATGCACGTGGGCCG	-1.09 kJ/mol
GTCGTCACGTGTAGGT	0.0837 kJ/mol
TAGGGCACGTGGCGTA	-1.05 kJ/mol
GTTTTCACGTGTCTGA	1.13 kJ/mol
CGAGGCACGTGGTGTC	-0.46 kJ/mol
GGGTGCACGTGCGAAG	-0.0837 kJ/mol
GTGTACACGTGGCTTT	0.167 kJ/mol
ATAAGCACGTGAGTTA	0.711 kJ/mol
ATACTCACGTGGTTGT	0.335 kJ/mol
CTATTCACGTGGTGGG	0.544 kJ/mol
AGTAGCACGTGGTAGC	-0.209 kJ/mol
GGGGACACGTGTTCTG	0.167 kJ/mol
AGATACACGTGTGATG	0.46 kJ/mol
TGCGTCACGTGTGATA	0.46 kJ/mol
TAAGGCACGTGGTCTA	-0.544 kJ/mol
TTGGCCACGTGTGTTT	0.126 kJ/mol
TCAATCACGTGTGTGA	0.251 kJ/mol
ATTAGCACGTGGGTGC	-0.628 kJ/mol
TTTGGCACGTGGCATT	-0.669 kJ/mol
TACGTCACGTGAGTTT	1.42 kJ/mol
GGGGCCACGTGGGTCT	-0.92 kJ/mol
GGCGTCACGTGTGTCG	0.586 kJ/mol

Sequence	relative binding free energy
TGTGACACGTGATTCT	0.335 kJ/mol
AGTCGCACGTGTGCGG	-0.377 kJ/mol
GTTTGCACGTGGGATT	0.377 kJ/mol
ATTCGCACGTGTTGCG	0.167 kJ/mol
GTTGTCACGTGCATGA	-0.0418 kJ/mol
AGTTTCACGTGCGGGT	1.42 kJ/mol
GCGGCCACGTGGGCGG	-0.753 kJ/mol
ATTGACACGTGGTGAG	0.293 kJ/mol
TAAAGCACGTGTTAGG	-0.502 kJ/mol
GATAACACGTGGTTTA	0.167 kJ/mol
TTAGACACGTGTTGTT	0.335 kJ/mol
TGGCGCACGTGTCATG	-0.209 kJ/mol
ATAGGCACGTGTTGTC	-0.0418 kJ/mol
AGGATCACGTGATGGG	0.502 kJ/mol
AGGATCACGTGGGTAG	0.126 kJ/mol
GGGGCCACGTGTAAGT	-0.586 kJ/mol
GGTATCACGTGTTGAT	1.09 kJ/mol
AGGTTCACGTGCATAG	0.711 kJ/mol
TATGGCACGTGTCTTA	-0.586 kJ/mol
AGCATCACGTGGGCTG	0 kJ/mol
GTATGCACGTGGCGGC	0.335 kJ/mol
TTTTACACGTGATGGA	0.753 kJ/mol
TTGGTCACGTGCAATG	0.209 kJ/mol
